Assay results as given in PubChem BioAssay AID743255 (National Center for Advancing Translational Sciences (NCATS), 2014).
The whole screen tested about 390,000 compounds, of which about 910 (0.23%) were called active. Not shown: some 5% with an inconclusive outcome. Calls follow the shape of the dose curve; as a rule, active = well fitted inhibition curve with a large enough effect; inconclusive = small, poorly fitted or top-dose-only effect; inactive = no such curve, though single readings can be large or run the other way. The entries are a selection whose mix differs from that of the whole data set.

molecular target: Ubiquitin carboxyl-terminal hydrolase 1 (Homo sapiens) (UniProt O94782); assay: Inhibitors of USP1/UAF1: Primary Screen; conditions: recombinant USP1/UAF1, Ub-Rhodamine cleavage fluorescence; series mostly up to 57.1 µM; activity change, negative = inhibition: at the top concentration; also: nearly all actives have a fitted effect of over 60% in size
How it was run: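 USP1/UAF1 complex at 1 nM was preincubated with compound for 15 min at room temperature, then Ub-Rho substrate (150nM final) was added. Fluorescence (480/540 nm) was read kinetically, 6 reads every 60 seconds.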
% is scaled to controls: 0 for no effect and ±100 for the full control effect; potency is read from the fitted curve at half-maximal effect.

UniProt O94782, sequence (O94782 whole entry, looked up): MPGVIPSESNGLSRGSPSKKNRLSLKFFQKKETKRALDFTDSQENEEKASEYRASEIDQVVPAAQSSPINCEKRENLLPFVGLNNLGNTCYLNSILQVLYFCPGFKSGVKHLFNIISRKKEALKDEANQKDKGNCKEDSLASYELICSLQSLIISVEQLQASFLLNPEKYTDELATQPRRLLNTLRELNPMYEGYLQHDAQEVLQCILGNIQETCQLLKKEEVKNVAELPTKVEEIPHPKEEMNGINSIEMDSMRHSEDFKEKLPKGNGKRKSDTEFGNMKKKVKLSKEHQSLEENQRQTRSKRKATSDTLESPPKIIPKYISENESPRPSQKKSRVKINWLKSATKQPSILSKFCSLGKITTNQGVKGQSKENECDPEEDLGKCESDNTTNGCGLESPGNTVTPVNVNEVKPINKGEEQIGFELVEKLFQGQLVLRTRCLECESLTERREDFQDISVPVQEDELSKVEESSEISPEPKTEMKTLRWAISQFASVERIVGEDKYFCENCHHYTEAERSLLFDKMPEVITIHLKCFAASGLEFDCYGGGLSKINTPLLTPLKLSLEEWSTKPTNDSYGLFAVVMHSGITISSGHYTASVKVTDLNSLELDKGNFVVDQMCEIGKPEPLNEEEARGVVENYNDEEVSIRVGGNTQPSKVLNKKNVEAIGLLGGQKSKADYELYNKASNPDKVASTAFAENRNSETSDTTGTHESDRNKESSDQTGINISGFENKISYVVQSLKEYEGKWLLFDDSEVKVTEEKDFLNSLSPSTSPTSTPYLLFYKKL

SMILES | activity change, negative = inhibition | Potency
Cc1ccc(S(=O)(=O)N(C)C[C@H]2Oc3cc(Br)ccc3S(=O)(=O)N([C@H](C)CO)C[C@@H]2C)cc1 | inactive: -18.1% | –
COc1ccc(-n2c(/C=C3\C(=O)Nc4ccccc43)nc3ccccc3c2=O)cc1 | inactive: -14.2% | –
CC(C)C[C@H]1C(=O)N2CCC[C@H]2[C@]2(O)O[C@](NC(=O)[C@@H]3C=C4c5cccc6[nH]cc(c56)C[C@H]4N(C)C3)(C(C)C)C(=O)N12 | – | active: 17.8 µM
[O-]c1ccccc1-[n+]1c(-c2ccccc2)cc(-c2ccccc2)cc1-c1ccccc1 | inactive: -14.7% | –
C[C@]12CC[C@H](O)C[C@H]1CC[C@@H]1[C@@H]2CC[C@]2(C)C(=O)CC[C@@H]12 | inactive: -13.4% | –
COc1cc2c(c(OC)c1OC)-c1ccc(O)c(=O)cc1C(NC(C)=O)CC2 (centres undefined) | inactive: -18.8% | –
COC(=O)C1=CO[C@@H](O[C@@H]2O[C@H](CO)[C@@H](O)[C@H](O)[C@H]2O)C2C(CO)=CCC12 (some centres undefined) | inactive: -26.3% | –
CC(C)c1ccc(C(c2c(O)c3ccccc3oc2=O)c2c(O)c3ccccc3oc2=O)cc1 | – | active: 28.2 µM
Cc1ccc(OC(=O)N(C)C[C@@H]2OCc3cnnn3CCCC(=O)N([C@@H](C)CO)C[C@H]2C)cc1 | inactive: -14.7% | –
C[C@]12CCC3C(CC[C@@H]4C[C@@H](O)CC[C@]34C)C1CC[C@@H]2O (some centres undefined) | inactive: -20.7% | –
Cc1ccc([C@H]2C[C@@H](n3cc(C4CC4)nn3)[C@H](O)CN2Cc2cccs2)cc1 | inactive: -0.951% | –
COc1ccc2c(c1OC)CN1CCc3cc4c(cc3C1C2)OCO4 (centres undefined) | inactive: -13.2% | –
COc1ccc(OC)c(N=Cc2c(O)n(Cc3ccccc3)c(=S)[nH]c2=O)c1 | – | active: 28.2 µM
Oc1ccc2c3c1O[C@H]1[C@@H](O)CC[C@@]4(O)[C@@H](C2)N(CC2CCC2)CC[C@]314 | inactive: -13.7% | –
C[C@H]1COC(=O)[C@@H](Cc2ccc(F)cc2)CC/C=C/C[C@H](CC(=O)N(CCO)Cc2ccccc2)C(=O)N1 | inactive: -16.8% | –
Cc1ccc(OC(=O)N(C)C[C@H]2OCc3cnnn3CCCC(=O)N([C@@H](C)CO)C[C@H]2C)cc1 | inactive: 1.81% | –
CC1CCC2C(C)C(=O)OC3OC4(C)CCC1C32OO4 (centres undefined) | inactive: -7.81% | –
COc1ccc2c(c1OC)C(=O)OC2C1c2cc3c(cc2CCN1C)OCO3 (centres undefined) | inactive: -20.3% | –
C[C@H](CO)N1C[C@H](C)[C@H](CN(C)C(=O)Oc2cccc3ccccc23)OCc2cnnn2CCCC1=O | inactive: -19.1% | –
O=C1NC(=O)N(c2ccc3c(c2)OCO3)C(=O)/C1=C\c1ccc(N2CCCCC2)o1 | inactive: -23.8% | –
Cc1ccc(OC(=O)N(C)C[C@H]2OCc3cnnn3CCCC(=O)N([C@H](C)CO)C[C@@H]2C)cc1 | inactive: 0.259% | –
COCCCn1c(N)c(C(=O)NCCC(C)C)c2nc3ccccc3nc21 | – | active: 22.4 µM
C[C@@H]1CN([C@@H](C)CO)C(=O)CCCn2nncc2CO[C@H]1CN(C)C(=O)Oc1cccc2ccccc12 | inactive: 0.941% | –
C[C@]12CCC3C(CC[C@H]4C[C@H](O)CC[C@]34C)C1C[C@H](O)[C@@H]2O (some centres undefined) | inactive: -16% | –
O=C1NC(=S)N(c2ccc(F)cc2)C(=O)/C1=C\c1ccoc1 | – | active: 28.2 µM
COc1ccc(OC(=O)N(C)C[C@@H]2OCc3cnnn3CCCC(=O)N([C@@H](C)CO)C[C@H]2C)cc1 | inactive: -28.3% | –
C[C@]12CCC3C(CC[C@H]4C[C@@H](O)CC[C@]34C)C1C[C@@H](O)[C@H]2O (some centres undefined) | inactive: -16% | –

SMILES | activity change, negative = inhibition | Potency
CC(=O)C1CCC2C3CCC4CC(O)CCC4(C)C3CCC12C (centres undefined) | inactive: -27.5% | –
O=C(/C=C/c1c[nH]c2ccccc12)c1c(O)n(CCc2ccccc2)c(=O)[nH]c1=O | – | active: 25.1 µM
C[C@H](CO)N1C[C@H](C)[C@@H](CN(C)C(=O)Oc2cccc3ccccc23)OCc2cn(nn2)CCCC1=O | inactive: 9.42% | –
COc1ccccc1N1CCN(C(=O)CCS(=O)(=O)c2ccc3c(c2)oc(=O)n3C)CC1 | inactive: -22.4% | –
ClCCN(CCCl)c1ccc(C=Cc2ccncn2)cc1 | – | active: 25.1 µM
C=C1C(=O)OC2CC(C)C3C=CC(=O)C3(C)C(O)C12 (centres undefined) | inactive: -11.3% | –
Cc1ccc(OC(=O)N(C)C[C@@H]2OCc3cnnn3CCCC(=O)N([C@H](C)CO)C[C@@H]2C)cc1 | inactive: -16.6% | –
Cc1ccccc1N1C(=O)NC(=O)/C(=C/c2ccc(N3CCOCC3)o2)C1=O | – | active: 25.1 µM
Cc1cccc(N2C(=O)/C(=C/c3ccc(CN(CCC#N)S(C)(=O)=O)o3)C(=O)NC2=S)c1 | – | active: 25.1 µM
COc1cc(CC(C)N)c(OC)cc1I (centres undefined) | inactive: -19% | –
C[C@]12CC[C@@H](O)C[C@@H]1CC[C@@H]1[C@@H]2CC[C@]2(C)C(=O)CC[C@@H]12 | inactive: -6.61% | –
CCC1(OC(=O)c2ccccc2)CC(C)N(C)CC1C (centres undefined) | inactive: 41% | –
COc1cccc2c1C(=O)c1c(O)c3c(c(O)c1C2=O)CC(O)(C(C)=NO)CC3OC1CC(N)C(O)C(C)O1 (centres undefined) | – | active: 25.1 µM
C[C@@H]1CN([C@H](C)CO)C(=O)c2cc(NC(=O)Nc3ccc(C(F)(F)F)cc3)ccc2O[C@H]1CN(C)S(=O)(=O)c1cccs1 | inactive: -3.59% | –
CN1[C@@H]2CC(OC(=O)[C@H](CO)c3ccccc3)C[C@H]1[C@@H]1O[C@@H]12 (some centres undefined) | – | inactive
O=c1c2ccccc2nc(/C=C/c2ccccc2O)n1-c1ccc(Br)cc1 | inactive: 27.4% | –
CC1=NCCc2c1[nH]c1cc(O)ccc21 | – | active: 25.1 µM
C[C@]12CCC3C(CC[C@H]4C[C@H](O)CC[C@]34C)C1C[C@@H](O)[C@@H]2O (some centres undefined) | inactive: -23.8% | –
C=C1[C@H]2CC[C@H]3[C@]4(C)C[C@H](O[C@H]5O[C@H](CO)[C@@H](OS(=O)(=O)O)[C@H](OS(=O)(=O)O)[C@H]5OC(=O)CC(C)C)C[C@@H](C(=O)O)[C@H]4CC[C@]3(C2)[C@H]1O | inactive: -16.4% | –
C[C@H]1C[C@@H](C)C(=O)[C@@H]([C@H](O)CC2CC(=O)NC(=O)C2)C1 | inactive: -7.1% | –
COc1ccc(OC(=O)N(C)C[C@H]2OCc3cnnn3CCCC(=O)N([C@H](C)CO)C[C@@H]2C)cc1 | inactive: -20.7% | –
O=[N+]([O-])c1ccc(C2[C@H]3C(c4ccccc4)=NC4(CCCC4)N23)cc1 (some centres undefined) | inactive: 0.512% | –
COc1ccc(OC)c(N2C(=O)NC(=O)/C(=C/c3ccc([N+](=O)[O-])s3)C2=O)c1 | – | active: 15.8 µM
CC(C)=CCN1CC[C@@]2(C)c3cc(O)ccc3C[C@@H]1C2C (some centres undefined) | inactive: -19.1% | –
O=[N+]([O-])c1ccc(NCc2ccccc2)c2nonc12 | – | active: 22.4 µM
COc1ccc(OC(=O)N(C)C[C@H]2OCc3cnnn3CCCC(=O)N([C@@H](C)CO)C[C@H]2C)cc1 | inactive: -22.9% | –
COC(=O)C1=CO[C@@H](C)[C@H]2CN3CC[C@]4(C(=O)Nc5ccccc54)[C@@H]3C[C@H]12 | inactive: 8.22% | –

SMILES | activity change, negative = inhibition | Potency
C[C@]12CCC3[C@@H](CC[C@@H]4C[C@H](O)CC[C@]34C)[C@@H]1CCC2=O (some centres undefined) | inactive: -10.7% | –
Nc1ccc2nonc2c1[N+](=O)[O-] | – | active: 31.6 µM
C[C@@H]1CN([C@H](C)CO)C(=O)CCCn2nncc2CO[C@H]1CN(C)C(=O)Oc1cccc2ccccc12 | inactive: -11.1% | –
CC(C)OCCCNC(=O)c1c(N)n(CC2CCCO2)c2nc3ccccc3nc12 (centres undefined) | – | active: 28.2 µM
CC1Oc2cc3c(-c4c(O)cc(O)c5c(O)c6c(cc45)OC(C)C(C)C6=O)c(O)cc(O)c3c(O)c2C(=O)C1C (centres undefined) | – | active: 12.6 µM
COc1ccc(CN2C(=O)NC(=O)/C(=C/c3ccc([N+](=O)[O-])s3)C2=O)cc1 | – | active: 35.5 µM
C[C@@H]1C(=O)O[C@H]2CC34[C@H]5C[C@@H](C(C)(C)C)[C@]36[C@@H](OC(=O)[C@@H]6O)O[C@@]4(C(=O)O5)[C@]21O (some centres undefined) | inactive: 9.34% | –
C[C@H]1CCC/C=C/C2C[C@H](O)CC2[C@H](O)/C=C/C(=O)O1 (some centres undefined) | inactive: 6.26% | –
C[C@H]1CN([C@@H](C)CO)C(=O)CCCn2nncc2CO[C@H]1CN(C)C(=O)Oc1cccc2ccccc12 | inactive: -30.9% | –
Cc1ccc(OC(=O)N(C)C[C@@H]2OCc3cnnn3CCCC(=O)N([C@H](C)CO)C[C@H]2C)cc1 | inactive: -25.7% | –
CCCCn1c(NC(=O)c2ccco2)c(C(=O)OCC)c2nc3ccccc3nc21 | – | active: 25.1 µM
C[C@]12CC[C@@H](O)C[C@@H]1CC[C@@H]1[C@@H]2CC[C@]2(C)[C@@H](O)CC[C@@H]12 | inactive: -13.9% | –
CC(C)n1c(/C=C/[C@H](O)C[C@H](O)CC(=O)O)c(-c2ccc(F)cc2)c2ccccc21 | inactive: -21.2% | –
C[C@]12CCC(=O)C=C1C=CC1C2CC[C@@]2(C)C1CC[C@@H]2O (some centres undefined) | inactive: -27% | –
COc1ccc(OC(=O)N(C)C[C@@H]2OCc3cnnn3CCCC(=O)N([C@H](C)CO)C[C@@H]2C)cc1 | inactive: -9.26% | –
CN(C)[C@@H]1C(=O)C(C(N)=O)=C(O)[C@@]2(O)C(=O)C3=C(O)c4c(O)ccc(Cl)c4[C@@](C)(O)[C@H]3C[C@@H]12 | inactive: 9.48% | –
CN1CCN(c2ccc([N+](=O)[O-])c3no[n+]([O-])c23)CC1 | inactive: 110% | –
C[C@H]1CCC/C=C/[C@@H]2C[C@H](O)C[C@H]2[C@H](O)/C=C/C(=O)O1 | inactive: 13.2% | –
C[C@H]1CCC/C=C/[C@@H]2C[C@H](O)C[C@H]2[C@@H](O)/C=C/C(=O)O1 | inactive: -20.6% | –
C[C@]12CCC3C(CC[C@H]4C[C@@H](O)CC[C@]34C)C1CC[C@@H]2O (some centres undefined) | inactive: -0.833% | –
CN1C[C@H](C(=O)NC2(C)OC3(O)[C@@H]4CCCN4C(=O)[C@H](Cc4ccccc4)N3C2=O)CC2c3cccc4[nH]cc(c34)C[C@H]21 (some centres undefined) | inactive: -14.9% | –
C[C@]12CCC3C(CC[C@H]4C[C@@H](O)CC[C@]34C)C1CCC2=O (some centres undefined) | inactive: -4.02% | –
C[C@]12CC[C@H](O)C[C@@H]1CC[C@H]1[C@H]3CCC(=O)[C@@]3(C)CC[C@@H]12 | inactive: -10.2% | –
C[C@@H]1CN([C@H](C)CO)C(=O)CCCn2cc(nn2)CO[C@H]1CN(C)C(=O)Oc1cccc2ccccc12 | inactive: -28.4% | –
CSc1ccc(CN2CCN(C(=O)COc3cccc(C)c3)CC2)cc1 | inactive: -4.9% | –
